Measured values from PMC10208485.
These are yes or no findings as the source states them, for the method shown. Binding seen in cells or lysates may run through a third protein. Some results given as binding are weak or reduced against the parent protein; the word gives no strength.

Protein sequences, listed by entry. Tags and fused reporters are not part of them. Lines headed by an entry give the natural chain unless they say otherwise; changes in a name come on top. Chains listed by the source or under a name are the forms on record and can include a tag or linker.
UniProt Q99816: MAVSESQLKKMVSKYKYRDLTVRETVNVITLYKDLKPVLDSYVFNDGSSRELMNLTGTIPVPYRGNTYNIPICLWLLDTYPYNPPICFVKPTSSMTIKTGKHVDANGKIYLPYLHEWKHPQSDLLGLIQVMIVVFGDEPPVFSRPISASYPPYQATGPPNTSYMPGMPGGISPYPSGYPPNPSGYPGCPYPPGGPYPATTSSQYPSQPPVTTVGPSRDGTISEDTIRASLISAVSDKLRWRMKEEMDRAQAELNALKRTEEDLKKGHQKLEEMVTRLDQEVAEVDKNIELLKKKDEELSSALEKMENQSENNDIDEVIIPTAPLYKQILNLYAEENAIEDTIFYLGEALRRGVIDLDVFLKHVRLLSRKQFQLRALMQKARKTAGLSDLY
Flag-TSG101_(VFND43AAAA) (Q99816, form named): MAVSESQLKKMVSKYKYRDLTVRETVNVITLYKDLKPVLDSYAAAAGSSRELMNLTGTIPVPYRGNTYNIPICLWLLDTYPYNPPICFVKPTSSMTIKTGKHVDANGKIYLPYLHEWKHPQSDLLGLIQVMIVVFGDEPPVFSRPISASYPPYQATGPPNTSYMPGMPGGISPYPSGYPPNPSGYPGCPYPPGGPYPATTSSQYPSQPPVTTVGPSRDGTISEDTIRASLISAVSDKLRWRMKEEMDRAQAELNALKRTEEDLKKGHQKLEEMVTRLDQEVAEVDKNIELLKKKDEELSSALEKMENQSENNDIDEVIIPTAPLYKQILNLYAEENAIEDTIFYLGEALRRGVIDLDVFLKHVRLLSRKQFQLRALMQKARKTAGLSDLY
HA-NEDD4 (P46934-4, form named): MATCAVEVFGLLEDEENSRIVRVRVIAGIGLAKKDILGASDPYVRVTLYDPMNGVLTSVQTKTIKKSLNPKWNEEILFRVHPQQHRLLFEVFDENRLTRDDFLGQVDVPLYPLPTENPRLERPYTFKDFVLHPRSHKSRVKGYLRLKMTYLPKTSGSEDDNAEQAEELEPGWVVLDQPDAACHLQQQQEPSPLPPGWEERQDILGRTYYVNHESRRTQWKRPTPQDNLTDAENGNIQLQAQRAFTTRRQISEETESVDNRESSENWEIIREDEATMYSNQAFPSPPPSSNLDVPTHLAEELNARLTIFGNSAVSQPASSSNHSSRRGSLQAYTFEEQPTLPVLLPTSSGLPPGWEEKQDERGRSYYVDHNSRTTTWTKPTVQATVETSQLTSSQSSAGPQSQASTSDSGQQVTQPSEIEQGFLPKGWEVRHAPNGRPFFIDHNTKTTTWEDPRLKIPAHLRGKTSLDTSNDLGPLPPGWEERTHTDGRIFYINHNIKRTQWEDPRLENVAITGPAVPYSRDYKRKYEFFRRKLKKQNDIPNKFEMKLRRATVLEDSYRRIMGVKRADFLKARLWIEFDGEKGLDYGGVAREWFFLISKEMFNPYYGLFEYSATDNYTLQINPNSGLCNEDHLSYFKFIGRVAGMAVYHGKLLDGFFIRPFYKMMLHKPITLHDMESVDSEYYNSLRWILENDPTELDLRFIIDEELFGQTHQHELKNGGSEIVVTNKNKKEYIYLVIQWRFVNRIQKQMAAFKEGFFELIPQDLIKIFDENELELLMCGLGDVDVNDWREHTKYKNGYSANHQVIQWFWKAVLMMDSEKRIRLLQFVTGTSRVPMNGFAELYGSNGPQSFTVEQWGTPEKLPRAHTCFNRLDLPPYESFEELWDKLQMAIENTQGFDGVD

Experiments:
[1] = molecular target: Myc-HBcK7R (Hepatitis B virus) (UniProt P03146); test: co-IP
[2] = molecular target: Myc-HBc_(K96R) (Hepatitis B virus) (UniProt P03146); test: co-IP
[3] = molecular target: N-terminal tagged Myc-HBc (hepatitis B virus capsid protein) (Hepatitis B virus) (UniProt P03146); test: co-IP
[4] = molecular target: Myc-HBc_(PPAY129AAAA) (Hepatitis B virus) (UniProt P03146); test: co-IP
[5] = molecular target: Myc-HBc_(K7/96R) (Hepatitis B virus) (UniProt P03146); test: co-IP
[6] = molecular target: Myc-HBc_(PP129AA) (Hepatitis B virus) (UniProt P03146); test: co-IP
[7] = molecular target: wild type HBc (capsid protein) expressed from HBV (Hepatitis B virus) (UniProt P03146); test: co-IP; HBc IP and TSG101 IP on lysates of HepAD38 cells and of HBV-infected HepG2-NTCP cells; untagged proteins; IgG IP as negative control

Flag-TSG101 (from UniProt Q99816 1-390)
binding [1]: binds
binding [2]: no binding
binding [3]: binds
binding [4]: no binding
binding [5]: no binding
binding [6]: no binding

Flag-TSG101_(VFND43AAAA) (from UniProt Q99816 1-390)
binding [3]: no binding

HA-NEDD4 (from UniProt P46934-4 1-900) (enzyme)
binding [3]: binds
binding [6]: no binding

tumor susceptibility gene 101 (TSG101), endogenous (from UniProt Q99816 1-390)
binding [7]: binds
